Out of some 48,000 compounds screened, about 120 (0.25%) were called active. Roughly 4% stayed inconclusive and do not appear here. The call rests on the fitted dose curve; in most records, active means well fitted activation curve with a large enough effect; inconclusive means small, poorly fitted or top-dose-only effect, or another doubt; inactive means no such curve, though single readings can be large or run the other way. Only a part is listed here, and it is no random draw. Where no call is shown, the source filed none.
Potency means the concentration at half of the fitted maximal effect.

This experiment in a line: Primary qHTS for Identification of Small Molecule Activators of Huntingtin-Antisense Promoter Activity. Further: nearly all actives have a fitted effect of over 55% in size. To be noted: HEK293 HTT-AS promoter firefly luciferase reporter, 24 h; activity change, positive = activation: at 57.5 µM (top of the series), percent change from vehicle, -100% = no light. An outline of the steps: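 HEK293 cells carrying firefly luciferase reporters were seeded at 2,500 per well in Opti-MEM and cultured for 24 h. They were then treated with compounds at up to 57.5 uM final for 24 h at 37 degrees C before Dual-Glo luminescence readout.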
Take `COc1cccc(CNC(=O)CCCn2c(=O)c3cccn3c3cccnc32)c1OC`: the “activity change, positive = activation” value was inactive: -1.29%.

With `CCCCOc1ccc(C(=O)Nc2onc3c2CCCC3)cc1`, the Potency is active: 12.6 µM.

Consider `O=C(/C=C/c1cn(CC(O)CN2CCCCCC2)c2ccccc12)c1ccc(Br)cc1` (configuration not stated), for which the “activity change, positive = activation” value was inactive: -25.9%.

For the compound `O=C(Nc1c(Cl)cccc1Cl)c1cc(-c2cccc(O)c2)on1`, the activity change, positive = activation was 55.5%.

With `Cc1ccc2oc(-c3ccc(Cl)c(NC(=O)c4ccc(OC(C)C)cc4)c3)nc2c1`, the activity change, positive = activation was 31.4%.

Take `COC(=O)Cc1c(C)c2cc3c(c(C)c2oc1=O)OCN(CCc1ccc(OC)cc1)C3`: the activity change, positive = activation is -14.7%.

With `COc1ccc(-c2cc(=O)oc3c4c(ccc23)OCN(Cc2cccc(OC)c2)C4)cc1`, the activity change, positive = activation was -26.2%.

Consider `CSc1cccc(N2C(=O)N(CC(=O)NCc3ccccc3Cl)c3ccccc3S2(=O)=O)c1`, for which the “activity change, positive = activation” value was inactive: -23.4%.

For the compound `Cc1cc(=O)n2c(C(=O)Nc3ccc(F)c(Cl)c3)c(C(=O)Nc3cccc(C)c3C)sc2n1`, the activity change, positive = activation is -6.99%.

On to `COc1cc(OC)cc(C(=O)Nc2ccc3oc(-c4ccc(Cl)cc4)nc3c2)c1`, for which the activity change, positive = activation was determined as 10.3%.

For `CCc1cccc(CC)c1NC(=O)c1c(C)oc2ccc(O)c(CN3CCOCC3)c12`, the activity change, positive = activation is -3.77%.

On to `COc1nc(Oc2ccc(=O)n(-c3ccccc3)n2)nc(N(C)C)n1`, for which the activity change, positive = activation was -0.0665%.

For the compound `COc1cc(C2C(=O)N(C3CCC(C)CC3)CC(=O)N2CCc2ccc(Cl)cc2)ccc1OC(C)C` (configuration not stated), the activity change, positive = activation is -2.39%.

On to `CCc1nn(CC(=O)NCCCc2ccccc2)c(=O)c2cc3cc(F)ccc3n12`, for which the activity change, positive = activation is -4.78%.

Consider `Cc1ccc(NC(=O)CC(c2ccc(F)cc2)N2Cc3ccccc3C2=O)cc1C` (configuration not stated), for which the activity change, positive = activation was -10.4%.

In the case of `Cc1ccc(-c2nn(CCC(N)=O)c(=O)c3ccccc23)cc1`, the activity change, positive = activation turned out to be 2.44%.

With `COc1ccc2c(C)c(CCC(=O)NCc3ccccc3Cl)c(=O)oc2c1C`, the activity change, positive = activation is -6.07%.

Regarding `O=C(Nc1ccc(OC(F)(F)F)cc1)c1noc2c1CCCC2`, the Potency is active: 1.12 µM.

`COC(=O)c1ccc(NC(=O)CC2C(=O)N(c3cccc(OC)c3)C(=O)N2C(C)C)cc1` (configuration not stated): the activity change, positive = activation was -1.07%.

As for `Cc1cc(NC(=O)c2cc(-c3cccc(Cl)c3)on2)n(-c2ccccc2)n1`, the activity change, positive = activation was -3.72%.

As for `CCOC(=O)c1c(NC(=O)CCCOc2ccccc2C)sc2c1CCC(C)C2` (configuration not stated), the activity change, positive = activation is -2.26%.

With `COc1ccccc1OCCSc1nc(-c2ccc(C(C)(C)C)cc2)nc2cc(=O)[nH]n12`, the activity change, positive = activation is -1.3%.

As for `Nc1nnc(SCC(=O)Nc2ccc(Cl)cc2)s1`, the “activity change, positive = activation” value is inactive: 16.4%.

Regarding `Cc1ccc(CCNC(=O)c2cc3ccccn3n2)cc1`, the activity change, positive = activation amounted to 25.8%.

Regarding `CCOc1ccc(S(=O)(=O)Nc2cc3c(C(=O)OCc4ccccc4)c(C)oc3c3ccccc23)cc1`, the activity change, positive = activation is -35.2%.

Turning to `COc1ccc(CNC(=O)CCc2c(C)nn(-c3ccc(N4CCCC4)nn3)c2C)cc1`, the activity change, positive = activation was -5.75%.

In the case of `COc1ccc(CCNC(=O)CCc2c(C)c3ccc(O)c(C)c3oc2=O)cc1`, the activity change, positive = activation is -0.379%.

Source of the values: PubChem BioAssay AID1508624 (National Center for Advancing Translational Sciences (NCATS), 2021).
